Test results as given in PubChem BioAssay AID887 (National Center for Advancing Translational Sciences (NCATS), 2007).
“And” between values parts separate entries of the source, which are not always exact repeats. Identical values can stand only once. Hit rate of the full screen: of about 74,000 compounds, about 1,100 (1.5%) were called active. The inconclusive results got no clear call from the source; some entries with a clear call stand among them for comparison. Calls come from the whole dose curve; as a rule, active = well fitted inhibition curve with a large enough effect; inconclusive = small, poorly fitted or top-dose-only effect; inactive = no such curve, though single readings can be large or run the other way. Where the call is inconclusive, the potency comes from a doubtful curve fit.

Target: Polyunsaturated fatty acid lipoxygenase ALOX15 (Homo sapiens) (UniProt P16050)
Test: qHTS Assay for Inhibitors of 15-hLO (15-human lipoxygenase); note: nearly all actives have a fitted effect of over 55% in size
Details: purified 15hLO-1, xylenol orange hydroperoxide absorbance; activity change, negative = inhibition: at 57.1 µM (top of the series) unless noted
In short: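 Purified human 15hLO-1 (40 nM) in 25 mM Hepes pH 7.5, 0.01% Triton X-100, preincubated 15 min RT with compound, then 50 uM arachidonic acid for 6 min. Hydroperoxide read by ferrous/xylenol orange, 30 min; 573/405 nm absorbance ratio gave progress.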
% is set by controls: 0 for no effect and ±100 for the full control effect; potency is the fitted concentration of half-maximal effect; tags give direction and shape of the fitted curve.

Sequence of UniProt P16050 (P16050 whole entry, looked up): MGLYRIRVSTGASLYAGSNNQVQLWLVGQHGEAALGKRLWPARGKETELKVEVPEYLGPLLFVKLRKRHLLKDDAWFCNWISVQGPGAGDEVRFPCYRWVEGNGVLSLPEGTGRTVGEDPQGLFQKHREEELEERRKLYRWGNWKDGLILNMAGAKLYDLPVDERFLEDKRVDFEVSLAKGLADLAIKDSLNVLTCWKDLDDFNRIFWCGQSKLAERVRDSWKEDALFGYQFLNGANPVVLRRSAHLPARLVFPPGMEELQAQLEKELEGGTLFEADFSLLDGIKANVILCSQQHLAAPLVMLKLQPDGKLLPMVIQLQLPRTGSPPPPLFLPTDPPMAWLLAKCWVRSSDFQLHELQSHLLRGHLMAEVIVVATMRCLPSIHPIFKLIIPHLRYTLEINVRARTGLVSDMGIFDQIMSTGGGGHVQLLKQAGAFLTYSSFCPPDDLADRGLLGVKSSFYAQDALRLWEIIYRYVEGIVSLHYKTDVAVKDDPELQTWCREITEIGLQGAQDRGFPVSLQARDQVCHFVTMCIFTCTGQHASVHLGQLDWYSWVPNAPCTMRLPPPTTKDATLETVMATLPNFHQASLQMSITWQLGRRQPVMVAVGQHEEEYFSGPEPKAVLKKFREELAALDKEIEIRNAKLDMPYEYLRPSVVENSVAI

Row | SMILES | Potency | activity change, negative = inhibition
1 | O=C(NO)c1ccc(C(=O)N(C2CCCCC2)C2CCCCC2)cc1 | inconclusive: 15.8 µM [inhibitor, partial curve] | –
2 | OC(COc1c(F)cc(Br)cc1F)CN1CCN(c2ccc(F)cc2)CC1 (centres undefined) | inconclusive: 39.8 µM [inhibitor, single point] | –
3 | CC(C)C[C@H](N)CSSC[C@@H](N)CC(C)C | – | inactive: -12.8%
4 | O=C(OCc1nnc(-c2ccc(Cl)cc2)o1)c1ccncc1 | – | inactive: 4.42%
5 | CCOc1[nH]c(/N=C/c2ccco2)c(C#N)c1C#N | active: 25.1 µM | –
6 | CN1CCc2c(cc(O)c(O)c2Cl)[C@H](c2cccc(Cl)c2)C1 | active: 15.8 µM | –
7 | COc1ccc(C(=O)NC(=O)N2CCCCC2)cc1 | inconclusive: 31.6 µM [inhibitor, single point] | –
8 | CC(C)(C)NC(=O)CN(C(=O)CCN1CCCc2ccccc21)C(C)(C)C | inconclusive: 25.1 µM [inhibitor, partial curve] | –
9 | COc1ccc(-c2nnc(CSc3ncnc4sc5c(c34)CCC5)o2)cc1OC | – | inactive: -12.7%
10 | Cc1nc(SCC(=O)CC(=O)OC(C)C)c(C#N)c(C)c1C | inconclusive: 20 µM [inhibitor, partial curve] | –
11 | Oc1oc(-c2ccco2)nc1C=Nc1ccccc1 | inconclusive: 25.1 µM [inhibitor, single point] | –
12 | COc1cc(-c2cccs2)cc(=O)c2c(C)oc(C)c12 | inconclusive: 31.6 µM [inhibitor, single point] | –
13 | CN(C)c1cc(-c2cccc(NS(C)(=O)=O)c2)ncn1 | inconclusive: 15.8 µM [inhibitor, partial curve] | –
14 | CC(C)=CCCC(C)CCO (centres undefined) | active: 7.94 µM | –
15 | C=C(C)CC1Nc2ccccc2NC1CC(=C)C (centres undefined) | active: 20 µM | –
16 | CCC(CC)COC(=O)C(C#N)c1nc2ccccc2nc1N1CCN(CC)CC1 (centres undefined) | inconclusive: 20 µM [inhibitor, single point] | –
17 | COc1cc2c(cc1OC)C(c1ccc(C)o1)CC(=O)N2 (centres undefined) | inconclusive: 31.6 µM [inhibitor, single point] | –
18 | O=c1c(-c2ccc(O)cc2)coc2cc(O)cc(O)c12 | inconclusive: 20 µM [inhibitor, single point] and inconclusive: 31.6 µM [inhibitor, partial curve] | –
19 | COc1ccc2[nH]c(=O)c(CN(C(=O)NC3CCCCC3)C3CCCC3)cc2c1 | inconclusive: 5.01 µM [inhibitor, full curve, poor fit] | –
20 | CCOC(=O)c1sc(N)c(C#N)c1CSc1nc2ccc(OCC)cc2[nH]1 | inconclusive: 25.1 µM [inhibitor, single point] | –
21 | COC(=O)c1c(C)nn(-c2ccccc2)c1N | – | inactive: 5.1%
22 | O=c1cc(-c2cccc(O)c2O)oc2ccccc12 | inconclusive: 0.501 µM [inhibitor, full curve] | –
23 | c1ccc(-c2nnn(C34CC5CC(CC(C5)C3)C4)n2)cc1 | – | inactive: -0.45%
24 | Oc1ccc(-c2nc3cnccn3c2Nc2ccc3c(c2)OCCO3)cc1 | – | inactive: -12.3%
25 | Fc1ccc(CNc2nc(-c3ccco3)cc(C(F)(F)F)n2)cc1 | active: 25.1 µM | –

Row | SMILES | Potency | activity change, negative = inhibition
26 | O=C1C=CC(=C(c2ccc(O)cc2)c2ccc(O)cc2)C=C1 | inconclusive: 31.6 µM [inhibitor, single point] | –
27 | C1=C(c2ccccc2)CCN(c2nc3ccccc3n3cnnc23)C1 | inconclusive: 15.8 µM [inhibitor, partial curve] | –
28 | N[C@H](C(=O)O)[C@H](O)C(=O)O | – | inactive: -13.3% [at 25.6 µM]
29 | O=C1CCNc2cc3ccccc3cc21 | inconclusive: 25.1 µM [inhibitor, partial curve] | –
30 | COCCN(CCOC)c1ncc(Cl)c(C(=O)c2c(C)cc3ccccn23)n1 | inconclusive: 5.01 µM [inhibitor, full curve] | –
31 | C=CCN1C(=O)CSC1=Nc1cccc(O)c1 | – | inactive: 3.09%
32 | CCOC(=O)Cc1csc(SCC(=O)Nc2cccc(C#N)c2)n1 | inconclusive: 0.199 µM [inhibitor, full curve] | –
33 | CC(N=Cc1cccc(O)c1O)c1ccccc1 (centres undefined) | active: 12.6 µM | –
34 | c1nc(N2CCCCC2)c2[nH]cnc2n1 | inconclusive: 6.31 µM [inhibitor, single point] | –
35 | Cc1nc(C)c(C(=O)Nc2nc3c(C)cccc3s2)o1 | inconclusive: 25.1 µM [inhibitor, single point] | –
36 | COc1cccc(-c2ccc3ncnc(NC4CC4)c3c2)c1 | inconclusive: 39.8 µM [inhibitor, single point] | –
37 | COC(=O)c1ccc(C(=S)N2CCOCC2)cc1 | inconclusive: 25.1 µM [inhibitor, single point] | –
38 | COC(=O)[C@H]1[C@H]2C[C@@H]3c4[nH]c5cc(OC)ccc5c4CCN3C[C@H]2C[C@@H](OC(=O)c2cc(OC)c(OC)c(OC)c2)[C@@H]1OC | inconclusive: 20 µM [inhibitor, single point] | –
39 | Cc1nc2[nH]c(=O)c3c(n2n1)NC1=C(C(=O)CC(C)(C)C1)C3c1ccccc1 (centres undefined) | – | inactive: 11.3%
40 | Nc1nn(S(=O)(=O)c2cccc3nsnc23)cc1-c1ccc(Br)cc1 | inconclusive: 12.6 µM [inhibitor, partial curve] | –
41 | COc1ccc(OCC2CC3C(CCC(C)C3c3ccc(Br)cc3)C(=O)O2)cc1 (centres undefined) | – | inactive: -11.1% [at 11.4 µM]
42 | O=C(Nc1nc(-c2ccco2)cs1)c1ccccc1 | active: 15.8 µM | –
43 | CCOC(=O)[C@H](CCc1ccccc1)N[C@@H](C)C(=O)N1[C@H](C(=O)O)C[C@H]2CCCC[C@@H]21 | – | inactive: 9.35%
44 | COc1ccc(NC(=O)c2ccc(OC)cc2)cc1 | inconclusive: 6.31 µM [inhibitor, single point] | –
45 | COC(=O)C(C#N)c1nc2ccccc2nc1N1CCCC1 (centres undefined) | – | inactive: -17.1%
46 | CC(C)Cn1c(N)c(S(=O)(=O)c2cccs2)c2nc3ccccc3nc21 | inconclusive: 31.6 µM [inhibitor, single point] | –
47 | COc1ccc(OC)c(-n2cnnn2)c1 | – | inactive: -4.77%
48 | CCCOc1ccccc1C1CC(=O)Nc2cc3c(cc21)OCO3 (centres undefined) | inconclusive: 15.8 µM [inhibitor, partial curve] | –
49 | Cn1c(=O)c2c(SCC(=O)NCC3CCCO3)nc(-c3cccs3)nc2n(C)c1=O (centres undefined) | – | inactive: 6.95%
